Article PMC3288238 (Journal of Medicinal Chemistry, 2012)

Test system: RT16 CHO cells (hFRα)
Settings: mean (SEM)
[1] = read-out: IC50 RT16 (+FA), with 200 nM folic acid
[2] = read-out: IC50 RT16 (hFRα), 2 nM LCV, no folic acid

Substance	IC50 [1] [nM]	IC50 [2] [nM]
(S)-2-({2-[4-(2-Amino-4-oxo-4,7-dihydro-3H-pyrrolo[2,3-d]pyrimidin-6-yl)-butyl]-thiophene-3-carbonyl}-amino)-pentanedioic acid [Compound 9]	> 1000	> 1000
(S)-2-({4-[4-(2-Amino-4-oxo-4,7-dihydro-3H-pyrrolo[2,3-d]pyrimidin-6-yl)-butyl]-thiophene-3-carbonyl}-amino)-pentanedioic acid [Compound 11]	> 1000	> 1000

Like-named read-outs stand apart in the source and are kept apart here.
